{"source": "PubChem BioAssay AID485294", "about": "(National Center for Advancing Translational Sciences (NCATS), 2010)", "note": "About 150 (0.041%) of roughly 370,000 compounds were called active. The shares of active, inactive and inconclusive entries below differ from those in the screen. The call rests on the fitted dose curve; in most records, active means well fitted inhibition curve with a large enough effect; inconclusive means small, poorly fitted or top-dose-only effect; inactive means flat fitted curve, though single readings scatter. Potencies of inconclusive entries are left out as doubtful fits. Potency means the concentration at half of the fitted maximal effect; tags describe the fitted curve by direction and shape."}
{"target": "Beta-lactamase (Escherichia coli (strain K12)) (UniProt P00811)", "sequence (P00811 whole entry, looked up)": "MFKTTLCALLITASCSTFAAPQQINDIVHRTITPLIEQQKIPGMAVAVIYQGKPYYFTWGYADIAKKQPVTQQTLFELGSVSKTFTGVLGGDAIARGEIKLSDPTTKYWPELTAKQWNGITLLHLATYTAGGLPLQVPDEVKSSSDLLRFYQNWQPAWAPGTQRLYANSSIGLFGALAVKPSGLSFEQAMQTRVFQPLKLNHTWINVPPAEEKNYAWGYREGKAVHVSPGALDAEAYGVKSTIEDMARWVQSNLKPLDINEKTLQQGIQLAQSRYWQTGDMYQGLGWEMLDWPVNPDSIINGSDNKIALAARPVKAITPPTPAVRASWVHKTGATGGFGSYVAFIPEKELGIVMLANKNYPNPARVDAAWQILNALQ", "test": "qHTS Inhibitors of AmpC Beta-Lactamase (assay with detergent); further: nearly all actives have a fitted effect of over 25% in size", "settings": "AmpC hydrolysis of nitrocefin, absorbance 480 nm, 0.01% Triton; series mostly up to 114 µM", "summary_of_the_method": "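AmpC (5.3 nM in the dispensed reagent) in 20 mM phosphate pH 7.0 with 0.01% (detergent screen) or 0.0001% Triton X-100 was preincubated with compounds for 15 min at room temperature. Nitrocefin was then added from an 800 uM solution, and hydrolysis was followed at 480 nm.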"}
{"smiles": "CC(C)n1c(O)c(N=NC(=O)CNC(=O)Cc2ccc(Cl)cc2)c2ccccc21", "Potency": "inconclusive [inhibitor, full curve, poor fit]"}
{"smiles": "Cc1ccc(C)c(Cn2c(=O)n(CCc3ccccc3)c(=O)c3c(C)c(C)sc32)c1", "Potency": "inactive"}
{"smiles": "Cc1ccc(C2NC(=O)NC(O)(C(F)(F)F)C2C(=O)c2cccs2)o1", "note": "(stereo not drawn)", "Potency": "inconclusive [inhibitor, full curve]"}
{"smiles": "COc1ccc(NC(=O)CCCCCN2C(=O)c3cccc([N+](=O)[O-])c3C2=O)c(OC)c1", "Potency": "inconclusive [inhibitor, partial curve, poor fit]"}
{"smiles": "CCCn1c(=O)c2c(C(F)(F)F)cc(-c3ccco3)nc2n(CCC)c1=O", "Potency": "inconclusive [inhibitor, single point]"}
{"smiles": "Cc1cccc(C)c1Nc1nnc(SCC(=O)NCc2cccs2)s1", "Potency": "inconclusive [inhibitor, full curve, poor fit]"}
{"smiles": "O=C(COC(=O)c1cn(-c2ccccc2)nc1-c1ccccc1)c1ccc([N+](=O)[O-])cc1", "Potency": "inconclusive [inhibitor, single point]"}
{"smiles": "NS(=O)(=O)c1ccc(CNC(=O)CSc2nc3ccc(Cl)cc3[nH]2)cc1", "Potency": "inconclusive [inhibitor, partial curve]"}
{"smiles": "N/C(=N\\OC(=O)c1ccc2c(c1)OCO2)c1ccncc1", "Potency": "inactive"}
{"smiles": "COc1ccc(C2OC(=O)c3ccccc3S2)cc1", "note": "(stereo not drawn)", "Potency": "inconclusive [inhibitor, full curve, poor fit]"}
{"smiles": "COc1ccccc1NS(=O)(=O)c1cc(NC(=O)CNC(=O)c2ccccc2)ccc1C", "Potency": "inconclusive [inhibitor, partial curve]"}
{"smiles": "CC(C)c1ccc2[nH]c(O)c(N=NC(=O)c3ccc(CSc4nncn4C)cc3)c2c1", "Potency": "inconclusive [inhibitor, partial curve]"}
{"smiles": "CN(c1ccccc1)S(=O)(=O)c1ccc(NC(=O)C2CC2)cc1", "Potency": "inconclusive [inhibitor, full curve, poor fit]"}
{"smiles": "COc1ccc(N(CC(O)CN2CCCCC2)S(=O)(=O)c2ccc(C)cc2)cc1", "note": "(stereo not drawn)", "Potency": "inconclusive [inhibitor, full curve, poor fit]"}
{"smiles": "CC1(C)CC(NC(=S)NCc2ccco2)CC(C)(C)N1", "Potency": "inconclusive [inhibitor, full curve, poor fit]"}
{"smiles": "COc1cccc(CN2CCN(C(=O)c3cccs3)CC2)c1OC", "Potency": "inconclusive [inhibitor, partial curve]"}
{"smiles": "Cc1ccc(C(=O)Nc2nnc(SCC(=O)N3CCCc4ccccc43)s2)cc1", "Potency": "inactive"}
{"smiles": "Cc1ccc[n+](CC(=O)/C=C2\\N(C)c3ccccc3C2(C)C)c1", "Potency": "inactive"}
{"smiles": "Cc1cccc(C)c1OCc1n[nH]c(=S)n1N", "Potency": "inconclusive [inhibitor, partial curve]"}
{"smiles": "CCC(Sc1nc(C)cc(=O)[nH]1)C(=O)Nc1nnc(C)s1", "note": "(stereo not drawn)", "Potency": "inconclusive [inhibitor, full curve, poor fit]"}
{"smiles": "O=C(CCCCl)Nc1nc(-c2ccc3c(c2)OCCO3)cs1", "Potency": "inconclusive [inhibitor, full curve]"}
{"smiles": "Cc1ccn(C(CC(=O)c2ccc(Br)cc2)C(=O)O)n1", "note": "(stereo not drawn)", "Potency": "inconclusive [inhibitor, single point]"}
{"smiles": "COc1ccc(/C=N/NC(=O)Cc2cccs2)cc1", "Potency": "inactive"}
{"smiles": "O=C(CSc1nnc(-c2ccc(F)cc2)c2ccccc12)Nc1cccc(Cl)c1", "Potency": "inactive"}
{"smiles": "Cc1c(OCC(=O)NCCCN2CCOCC2)ccc2c3c(c(=O)oc12)CCCC3", "Potency": "inconclusive [inhibitor, partial curve, poor fit]"}
{"smiles": "CN1CCc2c(sc(NC(=O)C3CCCCC3)c2C(N)=O)C1", "Potency": "inactive"}
{"smiles": "Cc1nc2cc(NC(=O)Nc3cccc([N+](=O)[O-])c3)ccc2n1C", "Potency": "inconclusive [inhibitor, partial curve]"}
{"smiles": "Cc1ccc(NC(=O)CSc2nnc(CN3CCOCC3)n2C)cc1C", "Potency": "inconclusive [inhibitor, partial curve]"}
{"smiles": "COc1cc2oc(=O)c3c(c2cc1OCC(=O)c1c(C)n(C)c2ccccc12)CCCC3", "Potency": "inactive"}
{"smiles": "O=C(NCC1CCCO1)c1cccc(N2C(=O)C3C4C=CC(C4)C3C2=O)c1", "note": "(stereo not drawn)", "Potency": "inconclusive [inhibitor, partial curve]"}
{"smiles": "CC(=O)c1sc(NC(=O)c2ccccc2F)nc1C", "Potency": "inconclusive [inhibitor, full curve]"}
{"smiles": "CCOc1ccc2c(c1)c(N=NC(N)=S)c(O)n2C", "Potency": "inactive"}
{"smiles": "O=C(Nc1ccon1)c1ccc(S(=O)(=O)N2CCCCCC2)cc1", "Potency": "inconclusive [inhibitor, full curve, poor fit]"}
{"smiles": "COc1ccc(CC(=O)Nc2ccc(-c3noc(-c4cc(OC)c(OC)c(OC)c4)n3)cc2)cc1", "Potency": "inconclusive [inhibitor, partial curve, poor fit]"}
{"smiles": "CCOC(=O)c1c(CS(=O)(=O)c2ccccc2)n(C)c2cc(Br)c(O)c(CN(C)C)c12", "Potency": "inactive"}
{"smiles": "Cn1c(C(=O)NCCc2ccccc2)cc2cc(S(=O)(=O)N3CCCCC3)ccc21", "Potency": "inactive"}
{"smiles": "NC(=O)CCCCC(=O)OCCCc1cccs1", "Potency": "inconclusive [inhibitor, partial curve, poor fit]"}
{"smiles": "CCCC(=O)Nc1ccc2nc(SCCOc3ccccc3)sc2c1", "Potency": "inactive"}
{"smiles": "CCCCSC1=NN1c1nc(N)nc(C)c1CC", "Potency": "inconclusive [inhibitor, partial curve, poor fit]"}
{"smiles": "COc1ccc(C(=O)N2CC=C(c3ccccc3)CC2)cc1S(=O)(=O)N1CCOCC1", "Potency": "inconclusive [inhibitor, full curve, poor fit]"}
{"smiles": "CCOC(=O)c1[nH]c2c(c1C)C(=O)CC(c1ccco1)C2", "note": "(stereo not drawn)", "Potency": "inconclusive [inhibitor, full curve]"}
{"smiles": "CC(=O)Oc1cccc2c1C(=O)c1c(OC(C)=O)cc(C(=O)O)cc1C2=O", "Potency": "inactive"}
{"smiles": "Cc1onc(-c2ccccc2Cl)c1C(=O)N1CCCCC1C(=O)O", "note": "(stereo not drawn)", "Potency": "inconclusive [inhibitor, full curve, poor fit]"}
